Whole data set: some 33,000 sequences, median “E-score (-0.5 to 0.5)” near -0.013, cut for the highest 2% near 0.3. This is one part of the list.
Target: T1, Msn1 (UniProt P22148)
T1 sequence: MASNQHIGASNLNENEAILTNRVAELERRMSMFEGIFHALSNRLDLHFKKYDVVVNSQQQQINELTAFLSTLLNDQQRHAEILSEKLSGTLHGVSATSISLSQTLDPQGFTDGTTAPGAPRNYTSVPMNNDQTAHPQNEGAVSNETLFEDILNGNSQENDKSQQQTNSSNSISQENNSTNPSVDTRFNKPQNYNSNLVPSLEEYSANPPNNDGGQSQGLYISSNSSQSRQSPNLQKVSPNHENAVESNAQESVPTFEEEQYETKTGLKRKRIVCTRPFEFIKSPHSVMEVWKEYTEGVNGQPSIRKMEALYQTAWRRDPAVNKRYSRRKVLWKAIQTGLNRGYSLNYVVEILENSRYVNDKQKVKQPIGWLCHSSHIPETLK
Test: PBM E-score (8-mer binding enrichment) (E-score (-0.5 to 0.5)); higher = stronger / more preferred TF binding; most listed sequences are background and not binding sites
Conditions: protein concentration: 200 nM; construct: GST-full length
In short: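 E-scores (a modified Wilcoxon-Mann-Whitney statistic) were assigned by the Universal PBM Analysis Suite to every ungapped eight-base word pooled with its reverse complement. The input came from universal all-10-mer Agilent arrays made double-stranded by primer extension and probed with GST-tagged yeast transcription factors at about 100-200 nM. Fluorescent anti-GST detected bound protein, and masliner normalised the scans.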

| Sequence | PBM E-score |
| --- | --- |
| CTTCCAGC | -0.241 |
| GCCCTTAC | -0.0108 |
| ACCACCAG | -0.212 |
| CTATAAGA | 0.0953 |
| GCGGGCAC | -0.0424 |
| CAGGGGCC | -0.366 |
| ACTCGAGA | -0.0333 |
| AATCAGTG | -0.0208 |
| AGCAAAAC | -0.0673 |
| AATGATGC | 0.135 |
| AGTTTGGG | 0.056 |
| AGCGGATC | -0.107 |
| ATTGACGG | 0.0517 |
| CGGTAGAA | -0.0617 |
| CGGATTGA | 0.0534 |
| AACGTGAC | -0.00656 |
| CCGTTAAG | 0.0385 |
| GATCAGCC | -0.251 |
| TGCAATAA | 0.215 |
| AAATTATG | 0.195 |
| CATGTCCC | 0.459 |
| CGCATCTA | 0.211 |
| ACCCGCTA | -0.0585 |
| CGACACCC | -0.0338 |
| AGAAGTAA | 0.085 |

| Sequence | PBM E-score |
| --- | --- |
| ATTCTGTA | 0.0493 |
| AAGTGGTC | -0.0791 |
| CTGCCATC | -0.158 |
| GAGGTACC | -0.141 |
| ACATCCCG | 0.213 |
| AGACGCGA | 5e-05 |
| CTTGCGTA | -0.122 |
| AAGTACTG | 0.0493 |
| GTGCCCGA | -0.221 |
| ACACGCCG | 0.175 |
| AAACACAA | 0.138 |
| AGCAAGAC | 0.0541 |
| CACCGACA | 0.124 |
| AGAGTGAG | -0.121 |
| AACGGGTA | 0.0783 |
| CGGAGGAC | 0.0943 |
| AAAAGTAG | 0.027 |
| ACTTGTCA | 0.369 |
| CGTCCAAA | 0.122 |
| AACTTGTG | 0.132 |
| AGAATCTA | -0.137 |
| ATGGGAAG | -0.203 |
| AAACGATA | 0.0762 |
| ATTTTAGG | 0.00808 |
| CACACCTC | -0.322 |

| Sequence | PBM E-score |
| --- | --- |
| CCAATAGC | -0.0522 |
| CTGGACAG | 0.0403 |
| ATTAATTG | 0.219 |
| ACGTTCCC | -0.191 |
| ACAGCATC | 0.0854 |
| AATGAGGA | -0.12 |
| ATAGCGTA | -0.0005 |
| CTTGCAAG | 0.0629 |
| TACCCTGA | -0.107 |
| ATATGTTA | -0.0436 |
| CTGACGAC | 0.0993 |
| TCAAGCGA | -0.0229 |
| CGCGACGC | 0.0409 |
| CGTACTCA | 0.0682 |
| CCGGCGCA | -0.00256 |
| CAAGACAC | 0.183 |
| GATTACAA | 0.168 |
| GGGACAGA | 0.262 |
| ATTGGTCG | 0.0591 |
| AGCCGGTA | 0.0338 |
| CGCTGTGA | -0.0621 |
| CCCCCCAG | -0.418 |
| GGCTTGAC | -0.0486 |
| ACAATGAA | 0.147 |
| ATGTGTAG | -0.124 |

| Sequence | PBM E-score |
| --- | --- |
| CTCGTGTA | 0.0423 |
| GCGATCGC | 0.0755 |
| GGAGGTAA | -0.0325 |
| AGAGCTCA | -0.106 |
| ACCTCATA | 0.00341 |
| CCTCGCGC | -0.134 |
| AGTGCAAT | -0.0103 |
| ATCTAGAG | -0.106 |
| ATCTATGA | -0.0389 |
| AGGCCCCG | -0.261 |
| CCTAGACA | 0.0613 |
| ATACCTGA | 0.163 |
| CTCATAAA | 0.0862 |
| CGATTTGC | -0.0666 |
| CGGTCCTC | -0.149 |
| CAGGTGAC | -0.109 |
| GGTCATGA | -0.078 |
| CGAAACTA | 0.109 |
| CTTTTGCC | 0.128 |
| GAGACCCC | -0.312 |
| ATTTCCTG | 0.206 |
| GGACAGCA | 0.164 |
| CGAATGAA | -0.0327 |
| ATATACTG | 0.117 |
| ATTTTTTC | 0.0778 |

| Sequence | PBM E-score |
| --- | --- |
| AGGCAAGC | -0.104 |
| CATGATAC | 0.203 |
| CTGGCTGC | -0.255 |
| CGTCCCTA | -0.0646 |
| CGAGATTC | 0.11 |
| CCAAGTAG | -0.0246 |
| CCTGGTCG | -0.109 |
| AAAGTGTC | 0.184 |
| ACTATGGA | 0.164 |
| CCCGTCGA | -0.138 |
| GATAAAAA | 0.211 |
| ACTGCTAG | 0.00032 |
| AGGGGGGG | -0.499 |
| AGACTTTG | 0.131 |
| AATTTTGA | 0.161 |
| GATCAGTA | 0.11 |
| CCAAGGAA | -0.147 |
| ACGCCGGA | -0.112 |
| ACGGAATA | 0.141 |
| AAACACCC | -0.0894 |
| CCCGTCGC | -0.27 |
| AGAGCTTG | -0.0326 |
| ATTCACAG | 0.0379 |
| ATGAGAGG | -0.263 |
| AGCCCGTA | -0.249 |

| Sequence | PBM E-score |
| --- | --- |
| ACGAAGAA | 0.0996 |
| GCCACTCC | -0.377 |
| AACGTTTA | -0.0111 |
| GTACGATA | 0.0417 |
| AAACATGT | 0.17 |
| CGTCATAA | 0.122 |
| CCAACTGA | -0.0383 |
| GTTGCACA | -0.0867 |
| AAATCCAC | -0.00621 |
| CAAAATTA | 0.148 |
| CTGCTTCA | -0.206 |
| CCCCAAGG | -0.166 |
| ATTGTAAC | 0.148 |
| CCACGAAC | 0.117 |
| ACATGACG | 0.0415 |
| CCAGGACG | 0.109 |
| GCAGGTCC | 0.0509 |
| CACCACTA | 0.0498 |
| GTAGATAC | -0.067 |
| CAGGACCC | -0.214 |
| CGCAGTGA | -0.0437 |
| TCAAAGGA | -0.037 |
| ATGTTATG | 0.116 |
| ACCACAGT | 0.0788 |
| CGCAATGC | -0.00386 |

| Sequence | PBM E-score |
| --- | --- |
| CTTAGTTC | -0.0195 |
| ACCGTTCT | 0.00836 |
| GAATCTAC | -0.133 |
| GAGTGCAA | 0.0222 |
| AAGACGGC | -0.159 |
| CGAGAACC | 0.124 |
| CCCCTAGG | -0.292 |
| GAGAGCAC | -0.121 |
| GACAGTAC | 0.0689 |
| CCAGACTC | 0.0222 |
| TATAGTCA | 0.124 |
| GTATGGTA | -0.0163 |
| AAGCTGAG | 0.086 |
| CTAAGAGA | -0.0121 |
| ACTAAAAG | 0.0984 |
| GACACGCA | 0.198 |
| GCTAGATA | 0.114 |
| GCAGAAAC | 0.0785 |
| AGATCGCG | 0.0682 |
| AAGTTACG | 0.0559 |
| TACGTCTA | 0.0407 |
| GGCCGGGA | -0.0785 |

Source: the supplement of paper PMC3334620
